Out of some 48,000 compounds screened, about 550 (1.1%) were called active. Another 4% or so got no clear call; they are omitted. Cut-off read from the data, not from the text of the source: active = potency below about 15 µM; inconclusive = mostly about 16 µM to 33 µM; inactive = weaker than that. This is one part of the list.
Potency is the fitted concentration of half-maximal effect.

Sequence of UniProt P04062 (P04062 whole entry, looked up): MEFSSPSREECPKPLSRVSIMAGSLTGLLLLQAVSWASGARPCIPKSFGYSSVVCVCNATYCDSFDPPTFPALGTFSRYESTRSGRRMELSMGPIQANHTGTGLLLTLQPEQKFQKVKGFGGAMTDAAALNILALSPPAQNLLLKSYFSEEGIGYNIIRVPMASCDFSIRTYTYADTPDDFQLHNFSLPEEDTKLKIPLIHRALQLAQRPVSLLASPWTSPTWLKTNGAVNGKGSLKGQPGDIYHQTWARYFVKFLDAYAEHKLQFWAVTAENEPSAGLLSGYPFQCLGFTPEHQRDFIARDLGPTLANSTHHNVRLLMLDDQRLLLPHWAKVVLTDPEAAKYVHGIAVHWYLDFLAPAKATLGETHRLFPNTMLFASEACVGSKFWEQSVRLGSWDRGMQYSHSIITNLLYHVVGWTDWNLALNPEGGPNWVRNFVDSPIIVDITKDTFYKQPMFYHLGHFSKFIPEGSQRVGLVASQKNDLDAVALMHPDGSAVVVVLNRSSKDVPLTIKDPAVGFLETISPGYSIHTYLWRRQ

This assay addresses Lysosomal acid glucosylceramidase (Homo sapiens) (UniProt P04062). In words: Glucocerebrosidase.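 Note: the screen sought inhibitors.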 To be noted: purified enzyme, resorufin glucoside fluorescence (screen aimed at inhibitors), 20 min. The gist of the method:
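Wild-type enzyme at 0.2 nM final in 50mM citric acid/KH2PO4, 10mM sodium taurocholate, 0.01% tween-20, pH 5.9, with resorufin beta-D-glucopyranoside at 30 uM final. Compounds titrated, 20 min at RT, red fluorescence read; AC50 from titration.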
For `CC1CCN(C(=O)CN(C2CCCCC2)S(C)(=O)=O)CC1`, the Potency is inactive: > 76.9 µM. The value for `Cc1ccccc1N=C1NC(=O)CS1` was inactive: > 76.9 µM. As to `CCC(=O)NC1=C(C#N)C2(CCCC2)Cc2ccccc21`, the Potency is inactive: > 76.9 µM. For the molecule `CC1CCCN(c2ccc(C(=O)NCCc3ccccc3)cn2)C1` (stereo not drawn), the Potency result was “inactive”. Turning to `O=C(CSc1nnc(CNc2ccc(F)cc2)n1Cc1ccco1)N1CCCC1`, the Potency is inactive: > 76.9 µM.

Turning to `Cc1c(NC(=O)c2cccc(F)c2)c(=O)n(-c2ccccc2)n1C`, the Potency was inactive: > 76.9 µM. The value for `CC(C)[C@@H](C(=O)NCC1CCC(C(=O)O)CC1)n1nnc2ccccc2c1=O` (stereo partly drawn) was inactive: > 76.9 µM; that for `COc1cccc(Nc2nnc(SCC(=O)N3CCOCC3)s2)c1` was inactive: > 76.9 µM. Regarding `Cc1cccc(-n2ncc3c(N)ncnc32)c1`, the Potency was inactive: > 76.9 µM.

In the case of `COc1ccc(OC)c(N(CC(=O)N2CCCC2)S(=O)(=O)c2ccc(OC)c(OC)c2)c1`, the Potency was inactive: > 76.9 µM. With `CC(=O)Nc1ccc(NC(=O)CN(c2ccccc2Cl)S(C)(=O)=O)cc1`, the Potency is inactive: > 76.9 µM. For `Cc1ccc(-c2ccc(OCC(=O)N3CCOCC3)cc2)cc1`, the Potency was inactive: > 76.9 µM.

Take `CCOC(=O)c1c(-c2ccco2)csc1N`: the Potency was inactive: > 76.9 µM. With `CC(=O)Oc1ccc(-c2nc(-c3cccnc3)no2)cc1`, the Potency is inactive: > 76.9 µM. For `CC(C)C(OC(=O)c1ccco1)C(=O)NCc1ccccc1` (stereo not drawn), the Potency entry is “inactive”. As for `COc1cccc2sc(N3CCN(c4nc5ccccc5s4)CC3)nc12`, the Potency was inactive: > 76.9 µM.

As for `CC(OC(=O)c1cc2sccc2n1C)C(=O)NCC1CCCO1` (stereo not drawn), the Potency is inactive: > 76.9 µM. With `CCSc1nnc(-c2ccc(S(=O)(=O)N3CCCC3)cc2)n1C`, the Potency is inactive: > 76.9 µM.

For `CCC1CCCCN1C1Sc2ccc(C(=O)OC)cc2NC1=O` (stereo not drawn), the Potency was inactive: > 76.9 µM. The figure for `Cc1cc(C)nc(N(C#N)CC(=O)c2ccccc2)n1` is inactive: > 76.9 µM; for `O=C1CSC(c2ccccn2)N1c1cccc(Cl)c1` (stereo not drawn) it is inactive: > 76.9 µM.

`COC(=O)C1CCN(C(=O)C2CCCCC2)CC1`: the Potency is inactive: > 76.9 µM. Regarding `CCC(=O)N1CCc2cc(S(=O)(=O)CCC(=O)Nc3cccc(F)c3)ccc21`, the Potency is inactive: > 76.9 µM.

As for `CCOC(=O)C1CCN(C(=O)CN(Cc2ccccc2)S(C)(=O)=O)CC1`, the Potency is inactive: > 76.9 µM. `O=C(NCC(=O)N(Cc1ccco1)C(C(=O)NC1CCCC1)c1cccnc1)c1cccs1` (stereo not drawn): the Potency is inactive: > 76.9 µM. For the molecule `CCC(=O)NCc1nc2ccccc2n1Cc1ccccc1F`, the Potency was inactive: > 76.9 µM.

Turning to `CC(C)(C)c1csc(NC(=O)Cn2c(=O)oc3ccccc32)n1`, the Potency is inactive: > 76.9 µM.

Take `CCOc1ccc(Cc2nnc(N)s2)cc1OCC`: the Potency was inactive: > 76.9 µM.

For the molecule `Cc1ccc(C(=O)c2cn[nH]c2-c2cc(Cl)ccc2O)cc1`, the Potency was inactive: > 76.9 µM. As to `Cc1nc2ccccc2c2c1C(=O)N(C(C)C)C2=O`, the Potency is inactive: > 76.9 µM. The value for `Cc1cc(C(=O)OCC(=O)N2CC(=O)Nc3ccccc32)no1` was inactive: > 76.9 µM; that for `CN(c1ccc(C(=O)Nc2ccccc2C(F)(F)F)cc1)S(C)(=O)=O` was inactive: > 76.9 µM. With `Cc1noc(C)c1S(=O)(=O)N1CCCC(C(=O)Nc2ccc(Cl)cn2)C1` (stereo not drawn), the Potency was inactive: > 76.9 µM. On to `O=C(O)C1C2CCC(C2)C1C(=O)Nc1cc(F)ccc1F` (stereo not drawn), for which the Potency was inactive: > 76.9 µM. On to `COc1cc(C(Nc2ccccn2)c2ccc3ccc(C)nc3c2O)cc(OC)c1O` (stereo not drawn), for which the Potency was inactive: > 76.9 µM.

Turning to `CN(c1nc2c(c(=O)n(C)c(=O)n2C)n1CC(=O)c1ccccc1)C1CCCCC1`, the Potency was inactive: > 76.9 µM. For `COC(=O)c1ccc(C2NC(=O)NC(C)=C2C(=O)N(C)C)cc1` (stereo not drawn), the Potency is inactive: > 76.9 µM. The value for `C/C(=N\O)C(=O)NCCN1CCCCC1` was inactive: > 76.9 µM. Turning to `O=C(Nc1cnc2sccn2c1=O)c1ccccc1Cl`, the Potency was inactive: > 76.9 µM. The figure for `COc1ccc(N2CCN(C(=O)c3ccc(C)c(Cl)c3)CC2)cc1` is inactive: > 76.9 µM. For `CCCc1nnc(NC(=O)C2CCCO2)s1` (stereo not drawn), the Potency is inactive: > 76.9 µM.

With `CCOC(=O)N1CCN(C(=O)CCn2c(=S)[nH]c3cc(OCC)c(OCC)cc3c2=O)CC1`, the Potency was inactive: > 76.9 µM.

For `COc1ccc(CCNC(=O)CSc2nc(O)c(CC(C)C)c(=O)[nH]2)cc1OC`, the Potency is inactive: > 76.9 µM.

With `Cc1ccc(C(=O)N2Cc3ccccc3CC2C(=O)O)cc1` (stereo not drawn), the Potency is inactive: > 76.9 µM. In the case of `CC(C)(C)NC(=O)C1CCC(C)(C(=O)O)C1(C)C` (stereo not drawn), the Potency was inactive: > 76.9 µM. In the case of `CCOc1ccccc1NC(=O)Cn1nnc(C(=O)NCc2ccco2)c1N`, the Potency was inactive: > 76.9 µM. As to `CC(C)(C)NC(=O)C(c1ccc(F)cc1)N(Cc1ccco1)C(=O)c1csnn1` (stereo not drawn), the Potency is inactive: > 76.9 µM.

Regarding `COc1ccc2nc(COC(=O)c3ccco3)c(C(C)=O)[n+]([O-])c2c1`, the Potency was inactive: > 76.9 µM. Regarding `COc1ccc(CNCC(O)COCc2cccs2)cc1` (stereo not drawn), the Potency is inactive: > 76.9 µM. As for `c1cnc(N2CCN(c3ncnc4c3oc3ccccc34)CC2)nc1`, the Potency was active: 5.7 µM. The figure for `CC1CN(S(=O)(=O)c2ccccc2)CC(C)O1` (stereo not drawn) is inactive: > 76.9 µM. With `O=C(O)CCCn1nc(C(F)(F)F)c2c1CCCCC2`, the Potency is inactive: > 76.9 µM. The value for `CCCCC(=O)Nc1ncc(Br)s1` was inactive: > 76.9 µM; that for `COCCNC(=O)c1c[nH]c2cc(OC)c(OC)cc2c1=O` was inactive: > 76.9 µM; that for `O=C(O)Cc1ccc(NC(=O)c2cccs2)cc1` was inactive: > 76.9 µM. The value for `O=C(OC1CCOC1=O)c1ccc2ncsc2c1` (stereo not drawn) was inactive: > 76.9 µM.

As for `COc1cccc(C2CC(C(F)(F)F)n3ncc(C(=O)O)c3N2)c1` (stereo not drawn), the Potency is inactive: > 76.9 µM. On to `Cc1cccc(NC(=O)COc2ccccc2C)n1`, for which the Potency is inactive: > 76.9 µM. The figure for `O=C(Cc1ccccc1)N1CCC(c2nc3ccccc3[nH]2)CC1` is inactive: > 76.9 µM; for `O=C1OCCC1Sc1nc2cc(Cl)ccc2s1` (stereo not drawn) it is inactive: > 76.9 µM; for `COC(=O)C1=C(NC(=O)c2cccc(OC)c2)CCS1` it is inactive: > 76.9 µM. Regarding `Clc1ccc(Oc2nc(Oc3ccc(Cl)cc3)nc(N3CCOCC3)n2)cc1`, the Potency is inactive: > 76.9 µM.

With `CCOc1ccc(C(=O)OCC(=O)NCc2ccco2)cc1OCC`, the Potency is inactive: > 76.9 µM. Turning to `Cc1cnc(NC(=O)CN2CCN(c3ccccn3)CC2)s1`, the Potency was inactive: > 76.9 µM. Regarding `Cc1ccc(-n2nc(C)c3c2OC(N)=C(C#N)C3c2ccoc2)cc1` (stereo not drawn), the Potency is inactive: > 76.9 µM.

Turning to `CCCc1cc(N2CCCC(C(=O)NCc3ccc4c(c3)OCO4)C2)n2ncnc2n1` (stereo not drawn), the Potency was inactive: > 76.9 µM. Turning to `CN1CCN(S(=O)(=O)c2ccc(NC(=O)c3cccs3)cc2)CC1`, the Potency is inactive: > 76.9 µM. Regarding `O=C(O)c1ccc2[nH]c3c(c2c1)CSCC3`, the Potency is inactive: > 76.9 µM.

As for `Cc1ccc(C)c(N2CCN(C(=O)CCNC(=O)Cn3ccc4ccccc4c3=O)CC2)c1`, the Potency was inactive: > 76.9 µM. For `COc1ccccc1NC(=O)N(Cc1ccco1)Cc1cc2c(C)ccc(C)c2[nH]c1=O`, the Potency was inactive: > 76.9 µM. The figure for `CCN(CC)c1ccc(NC(=O)c2cccc(OC)c2)c(C)c1` is inactive: > 76.9 µM. In the case of `O=C(NC1CCCc2ccccc21)c1cccnc1` (stereo not drawn), the Potency was inactive: > 76.9 µM.

In the case of `CCCC1(CCC)NC(=O)N(CC(=O)Nc2cccc(OC)c2)C1=O`, the Potency is inactive: > 76.9 µM. Take `Cc1cc(C)n2nc(SCc3cc(=O)n4c(C)cccc4n3)nc2n1`: the Potency was inactive: > 76.9 µM. Take `COc1ccc(-c2cc(C(F)(F)F)nc(N3CCOCC3)n2)cc1OC`: the Potency was inactive: > 76.9 µM. As to `CC1(C(=O)N(c2ccccc2)C(C(=O)NC2CCCC2)c2ccccn2)CC(=O)N=C2C=CC=CN21` (stereo not drawn), the Potency is inactive: > 76.9 µM.

For the molecule `C=C(C)CSc1nnc(-c2ccc(OC)c(OC)c2)n1N`, the Potency is inactive: > 76.9 µM. Turning to `COc1cc2cc(C(=O)O)n(C)c2c(OC)c1OC`, the Potency is inactive: > 76.9 µM. Regarding `CCOC(=O)N1CCC(NC(=O)CCc2nc(-c3ccccc3F)no2)CC1`, the Potency was inactive: > 76.9 µM. As for `Cc1ccccc1Cn1c(=O)n(CCCC(=O)NCc2ccco2)c(=O)c2ccccc21`, the Potency was inactive: > 76.9 µM.

Turning to `COc1ccc(NC(=O)CSc2ncn(-c3ccccc3)n2)cc1Cl`, the Potency was inactive: > 76.9 µM. For `CCNC(=O)CC1C(=O)N(c2ccc(OC)cc2)C(=O)N1Cc1ccc(OC)cc1` (stereo not drawn), the Potency was inactive: > 76.9 µM. Turning to `CCOC(=O)C1C(=O)Nc2nc(C)nn2C1c1ccccc1` (stereo not drawn), the Potency is inactive: > 76.9 µM. For `Cn1c(=O)c2c(nc(SCCN3CCOCC3)n2Cc2ccccc2)n(C)c1=O`, the Potency entry is “inactive”. For `CCCn1c(N)c(C(=O)CSc2nnc(Cc3ccccc3)o2)c(=O)n(C)c1=O`, the Potency is inactive: > 76.9 µM. For `CCCNC(=O)N1CCN(S(=O)(=O)c2ccc(C)cc2)CC1`, the Potency is inactive: > 76.9 µM. `CCCCc1noc2c1/C(=N\O)CC(c1ccccc1)C2` (stereo not drawn): the Potency was inactive: > 76.9 µM. For `Cc1cccc(-n2c(N)cc(=O)nc2SCC(=O)Nc2cc(C)on2)c1`, the Potency is inactive: > 76.9 µM. As for `CCOc1ncccc1C(=O)OCc1cc(=O)n2c(n1)sc1ccccc12`, the Potency was inactive: > 76.9 µM.

`COc1ccc(-n2ccnc2SCC(=O)Nc2ccc(OC)cc2OC)cc1`: the Potency is inactive: > 76.9 µM. Regarding `O=C(CSc1nc(-c2cccs2)cc(C(F)(F)F)n1)NCCCn1ccnc1`, the Potency is inactive: > 76.9 µM.

Consider `COCCn1c(C)cc(C(=O)COC(=O)C23CC4CC(CC(O)(C4)C2)C3)c1C`, for which the Potency was inactive: > 76.9 µM. On to `C=CCN=c1sc(C(=O)OC)cc(=O)n1CC=C`, for which the Potency was inactive: > 76.9 µM.

The values are drawn from PubChem BioAssay AID360 (National Center for Advancing Translational Sciences (NCATS), 2006).
